This is one part of the list.
What was measured:
Assay in all cases: glycan array binding signal (z-score within array); higher = stronger binding
Conditions in all cases: glycan notation: IUPAC condensed, linker removed
[1] = target: GlcNAc(b1-3)Gal(b1-3)GalNAc
Outline: (§1)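 Arrays were curated from the Consortium for Functional Glycomics database, 3228 in total, and kept only where the protein sequence was available. Binding is expressed as a within-array Z-score. This score was averaged across arrays of the same protein sequence at different concentrations or buffers and across linkers, and negative values can be read as non-binding.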

GlcNAc(b1-3)Gal(b1-4)Glc = target: GlcNAc(b1-3)Gal(b1-4)Glc
Outline: as §1

[2] = target: GlcNAc(b1-3)Gal(b1-4)GlcNAc
Outline: as §1

[3] = target: GlcNAc(b1-3)Gal(b1-4)GlcNAc(b1-2)Man(a1-3)[GlcNAc(b1-3)Gal(b1-4)GlcNAc(b1-2)Man(a1-6)]Man(b1-4)GlcNAc(b1-4)GlcNAc
Outline: as §1

[4] = target: GlcNAc(b1-3)Gal(b1-4)GlcNAc(b1-2)Man(a1-3)[GlcNAc(b1-3)Gal(b1-4)GlcNAc(b1-2)Man(a1-6)]Man(b1-4)GlcNAc(b1-4)[Fuc(a1-6)]GlcNAc
Outline: as §1

[5] = target: GlcNAc(b1-3)Gal(b1-4)GlcNAc(b1-2)[GlcNAc(b1-3)Gal(b1-4)GlcNAc(b1-6)]Man(a1-6)[GlcNAc(b1-3)Gal(b1-4)GlcNAc(b1-2)Man(a1-3)]Man(b1-4)GlcNAc(b1-4)GlcNAc
Outline: as §1

[6] = target: GlcNAc(b1-3)Gal(b1-4)GlcNAc(b1-3)Gal(b1-4)GlcNAc
Outline: as §1

[7] = target: GlcNAc(b1-3)Gal(b1-4)GlcNAc(b1-3)Gal(b1-4)GlcNAc(b1-2)Man(a1-3)[GlcNAc(b1-3)Gal(b1-4)GlcNAc(b1-3)Gal(b1-4)GlcNAc(b1-2)Man(a1-6)]Man(b1-4)GlcNAc(b1-4)GlcNAc
Outline: as §1

[8] = target: GlcNAc(b1-3)Gal(b1-4)GlcNAc(b1-3)Gal(b1-4)GlcNAc(b1-2)Man(a1-3)[GlcNAc(b1-3)Gal(b1-4)GlcNAc(b1-3)Gal(b1-4)GlcNAc(b1-2)Man(a1-6)]Man(b1-4)GlcNAc(b1-4)[Fuc(a1-6)]GlcNAc
Outline: as §1

[9] = target: GlcNAc(b1-3)Gal(b1-4)GlcNAc(b1-3)Gal(b1-4)GlcNAc(b1-2)[GlcNAc(b1-3)Gal(b1-4)GlcNAc(b1-3)Gal(b1-4)GlcNAc(b1-6)]Man(a1-6)[GlcNAc(b1-3)Gal(b1-4)GlcNAc(b1-3)Gal(b1-4)GlcNAc(b1-2)Man(a1-3)]Man(b1-4)GlcNAc(b1-4)[Fuc(a1-6)]GlcNAc
Outline: as §1

[10] = target: GlcNAc(b1-3)Gal(b1-4)GlcNAc(b1-3)Gal(b1-4)GlcNAc(b1-3)Gal(b1-4)GlcNAc(b1-2)Man(a1-3)[GlcNAc(b1-3)Gal(b1-4)GlcNAc(b1-3)Gal(b1-4)GlcNAc(b1-3)Gal(b1-4)GlcNAc(b1-2)Man(a1-6)]Man(b1-4)GlcNAc(b1-4)GlcNAc
Outline: as §1

[11] = target: GlcNAc(b1-3)Gal(b1-4)GlcNAc(b1-3)Gal(b1-4)GlcNAc(b1-3)Gal(b1-4)GlcNAc(b1-2)Man(a1-3)[GlcNAc(b1-3)Gal(b1-4)GlcNAc(b1-3)Gal(b1-4)GlcNAc(b1-3)Gal(b1-4)GlcNAc(b1-2)Man(a1-6)]Man(b1-4)GlcNAc(b1-4)[Fuc(a1-6)]GlcNAc
Outline: as §1

[12] = target: GlcNAc(b1-3)Gal(b1-4)GlcNAc(b1-3)Gal(b1-4)GlcNAc(b1-3)Gal(b1-4)GlcNAc(b1-2)[GlcNAc(b1-3)Gal(b1-4)GlcNAc(b1-3)Gal(b1-4)GlcNAc(b1-3)Gal(b1-4)GlcNAc(b1-6)]Man(a1-6)[GlcNAc(b1-3)Gal(b1-4)GlcNAc(b1-3)Gal(b1-4)GlcNAc(b1-3)Gal(b1-4)GlcNAc(b1-2)Man(a1-3)]Man(b1-4)GlcNAc(b1-4)[Fuc(a1-6)]GlcNAc
Outline: as §1

[13] = target: GlcNAc(b1-3)Gal(b1-4)GlcNAc(b1-3)Gal(b1-4)GlcNAc(b1-3)Gal(b1-4)GlcNAc(b1-3)Gal(b1-4)GlcNAc(b1-2)Man(a1-3)[GlcNAc(b1-3)Gal(b1-4)GlcNAc(b1-3)Gal(b1-4)GlcNAc(b1-3)Gal(b1-4)GlcNAc(b1-3)Gal(b1-4)GlcNAc(b1-2)Man(a1-6)]Man(b1-4)GlcNAc(b1-4)GlcNAc
Outline: as §1

[14] = target: GlcNAc(b1-3)Gal(b1-4)GlcNAc(b1-3)Gal(b1-4)GlcNAc(b1-3)Gal(b1-4)GlcNAc(b1-3)Gal(b1-4)GlcNAc(b1-2)Man(a1-3)[GlcNAc(b1-3)Gal(b1-4)GlcNAc(b1-3)Gal(b1-4)GlcNAc(b1-3)Gal(b1-4)GlcNAc(b1-3)Gal(b1-4)GlcNAc(b1-2)Man(a1-6)]Man(b1-4)GlcNAc(b1-4)[Fuc(a1-6)]GlcNAc
Outline: as §1

[15] = target: GlcNAc(b1-3)Gal(b1-4)GlcNAc(b1-3)Gal(b1-4)GlcNAc(b1-3)Gal(b1-4)GlcNAc(b1-3)Gal(b1-4)GlcNAc(b1-2)[GlcNAc(b1-3)Gal(b1-4)GlcNAc(b1-3)Gal(b1-4)GlcNAc(b1-3)Gal(b1-4)GlcNAc(b1-3)Gal(b1-4)GlcNAc(b1-6)]Man(a1-6)[GlcNAc(b1-3)Gal(b1-4)GlcNAc(b1-3)Gal(b1-4)GlcNAc(b1-3)Gal(b1-4)GlcNAc(b1-3)Gal(b1-4)GlcNAc(b1-2)Man(a1-3)]Man(b1-4)GlcNAc(b1-4)[Fuc(a1-6)]GlcNAc
Outline: as §1

[16] = target: GlcNAc(b1-3)Gal(b1-4)GlcNAc(b1-3)Gal(b1-4)GlcNAc(b1-3)GalNAc
Outline: as §1

[17] = target: GlcNAc(b1-3)Gal(b1-4)GlcNAc(b1-3)GalNAc
Outline: as §1

[18] = target: GlcNAc(b1-3)Gal(b1-4)GlcNAc(b1-3)[GlcNAc(b1-3)Gal(b1-4)GlcNAc(b1-3)]GalNAc
Outline: as §1

[19] = target: GlcNAc(b1-3)Gal(b1-4)GlcNAc(b1-6)[Gal(b1-3)]GalNAc
Outline: as §1

[20] = target: GlcNAc(b1-3)Gal(b1-4)GlcNAc(b1-6)[GlcNAc(b1-3)Gal(b1-3)]GalNAc
Outline: as §1

[21] = target: GlcNAc(b1-3)Gal(b1-4)GlcNAc(b1-6)[GlcNAc(b1-3)]Gal(b1-4)GlcNAc
Outline: as §1

GlcNAc(b1-3)GalNAc = target: GlcNAc(b1-3)GalNAc
Outline: as §1

GlcNAc(b1-3)Man = target: GlcNAc(b1-3)Man
Outline: as §1

[22] = target: GlcNAc(b1-3)[GlcNAc(b1-4)][GlcNAc(b1-6)]GlcNAc
Outline: as §1

[23] = target: GlcNAc(b1-3)[GlcNAc(b1-6)]Gal(b1-4)GlcNAc
Outline: as §1

[24] = target: GlcNAc(b1-3)[GlcNAc(b1-6)]GalNAc
Outline: as §1

[25] = target: GlcNAc(b1-4)Gal(b1-4)GlcNAc
Outline: as §1

GlcNAc(b1-4)GlcNAc = target: GlcNAc(b1-4)GlcNAc
Outline: as §1

[26] = target: GlcNAc(b1-4)GlcNAc(b1-4)GlcNAc
Outline: as §1

[27] = target: GlcNAc(b1-4)GlcNAc(b1-4)GlcNAc(b1-4)GlcNAc(b1-4)GlcNAc
Outline: as §1

[28] = target: GlcNAc(b1-4)GlcNAc(b1-4)GlcNAc(b1-4)GlcNAc(b1-4)GlcNAc(b1-4)GlcNAc
Outline: as §1

[29] = target: GlcNAc(b1-4)[GlcNAc(b1-6)]GalNAc
Outline: as §1

[30] = target: GlcNAc(b1-6)Gal(b1-4)GlcNAc
Outline: as §1

GlcNAc(b1-6)GalNAc = target: GlcNAc(b1-6)GalNAc
Outline: as §1

[31] = target: GlcNAc6S(b1-3)Gal(b1-4)GlcNAc
Outline: as §1

Kdn(a2-3)Gal(b1-3)GalNAc = target: Kdn(a2-3)Gal(b1-3)GalNAc
Outline: as §1

B1: Siglec-9 (Homo sapiens), Q9Y336 (protein)
chain: MLLLLLPLLWGRERAEGQTSKLLTMQSSVTVQEGLCVHVPCSFSYPSHGWIYPGPVVHGYWFREGANTDQDAPVATNNPARAVWEETRDRFHLLGDPHTKNCTLSIRDARRSDAGRYFFRMEKGSIKWNYKHHRLSVNVTALTHRPNILIPGTLESGCPQNLTCSVPWACEQGTPPMISWIGTSVSPLDPSTTRSSVLTLIPQPQDHGTSLTCQVTFPGASVTTNKTVHLNVSYPPQNLTMTVFQGDGTVSTVLGNGSSLSLPEGQSLRLVCAVDAVDSNPPARLSLSWRGLTLCPSQPSNPGVLELPWVHLRDAAEFTCRAQNPLGSQQVYLNVSLQSKATSGVTQGVVGGAGATALVFLSFCVIFVVVRSCRKKSARPAAGVGDTGIEDANAVRGSASQGPLTEPWAEDSPPDQPPPASARSSVGEGELQYASLSFQMVKPWDSRGQEATDTEYSEIKIHR
glycan array binding signal (z-score) [1]: -0.1
glycan array binding signal (z-score) (GlcNAc(b1-3)Gal(b1-4)Glc): -0.137
glycan array binding signal (z-score) [2]: -0.136
glycan array binding signal (z-score) [3]: -0.042
glycan array binding signal (z-score) [4]: -0.093
glycan array binding signal (z-score) [5]: -0.437
glycan array binding signal (z-score) [6]: -0.137
glycan array binding signal (z-score) [7]: 0.062
glycan array binding signal (z-score) [8]: 0.062
glycan array binding signal (z-score) [9]: 0.145
glycan array binding signal (z-score) [10]: 0.046
glycan array binding signal (z-score) [11]: 0.165
glycan array binding signal (z-score) [12]: 0.036
glycan array binding signal (z-score) [13]: -0.181
glycan array binding signal (z-score) [14]: -0.048
glycan array binding signal (z-score) [15]: 0.152
glycan array binding signal (z-score) [16]: -0.128
glycan array binding signal (z-score) [17]: -0.044
glycan array binding signal (z-score) [18]: -0.1
glycan array binding signal (z-score) [19]: -0.144
glycan array binding signal (z-score) [20]: -0.082
glycan array binding signal (z-score) [21]: -0.344
glycan array binding signal (z-score) (GlcNAc(b1-3)GalNAc): -0.152
glycan array binding signal (z-score) (GlcNAc(b1-3)Man): -0.211
glycan array binding signal (z-score) [22]: -0.195
glycan array binding signal (z-score) [23]: -0.322
glycan array binding signal (z-score) [24]: -0.138
glycan array binding signal (z-score) [25]: 0.012
glycan array binding signal (z-score) (GlcNAc(b1-4)GlcNAc): -0.238
glycan array binding signal (z-score) [26]: -0.25
glycan array binding signal (z-score) [27]: -0.137
glycan array binding signal (z-score) [28]: -0.468
glycan array binding signal (z-score) [29]: -0.132
glycan array binding signal (z-score) [30]: -0.081
glycan array binding signal (z-score) (GlcNAc(b1-6)GalNAc): -0.252
glycan array binding signal (z-score) [31]: -0.385
glycan array binding signal (z-score) (Kdn(a2-3)Gal(b1-3)GalNAc): 0.069
